Among all 48,000 compounds or so, about 550 (1.1%) were called active. Roughly 4% stayed inconclusive and do not appear here. Rule as the data show it: active = potency below about 15 µM; inconclusive = mostly about 16 µM to 33 µM; inactive = weaker than that. This is one part of the list.
target: Lysosomal acid glucosylceramidase (Homo sapiens) (UniProt P04062); assay: Glucocerebrosidase; conditions: purified enzyme, resorufin glucoside fluorescence (screen aimed at inhibitors), 20 min;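 also: the screen sought inhibitors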
Chain of UniProt P04062 (P04062 whole entry, looked up): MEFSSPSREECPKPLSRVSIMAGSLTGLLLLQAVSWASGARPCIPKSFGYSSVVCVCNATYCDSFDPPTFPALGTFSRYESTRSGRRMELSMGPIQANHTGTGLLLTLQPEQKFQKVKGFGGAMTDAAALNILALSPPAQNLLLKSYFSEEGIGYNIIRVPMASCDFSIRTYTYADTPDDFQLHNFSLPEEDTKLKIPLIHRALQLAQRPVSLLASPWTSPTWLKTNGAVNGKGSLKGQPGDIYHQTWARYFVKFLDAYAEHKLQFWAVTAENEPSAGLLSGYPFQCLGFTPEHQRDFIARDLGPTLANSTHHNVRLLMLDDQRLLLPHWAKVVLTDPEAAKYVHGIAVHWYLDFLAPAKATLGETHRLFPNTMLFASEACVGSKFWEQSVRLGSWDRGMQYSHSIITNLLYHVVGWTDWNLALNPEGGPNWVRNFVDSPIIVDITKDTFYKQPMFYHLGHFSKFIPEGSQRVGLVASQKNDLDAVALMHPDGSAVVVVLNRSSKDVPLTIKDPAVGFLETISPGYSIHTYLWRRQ
In short: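 Wild-type enzyme at 0.2 nM final in 50mM citric acid/KH2PO4, 10mM sodium taurocholate, 0.01% tween-20, pH 5.9, with resorufin beta-D-glucopyranoside at 30 uM final. Compounds titrated, 20 min at RT, red fluorescence read; AC50 from titration.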
Potency is read from the fitted curve at half-maximal effect.

Potency, inactive:
CCOC(=O)c1ccc(N2C(=O)c3n[nH]c(C)c3C2c2cccnc2)cc1 (centres undefined) > 76.9 µM
COc1ccc(C2(O)CCN(Cc3nnnn3Cc3ccc(F)cc3)CC2)cc1 > 76.9 µM
O=C(CN1C(=O)C2C3c4ccccc4C(c4ccccc43)C2C1=O)N1CCOCC1 (centres undefined) > 76.9 µM
Cc1nnc(NC(=O)Oc2ccccc2)s1 > 76.9 µM
Cc1cc(C)nc(SCc2nnc(SCC(=O)OC3CCCCC3)o2)n1 > 76.9 µM
COc1cccc2cc(C(=O)N3CCN(C/C=C/c4ccccc4)CC3)c(=O)oc12 > 76.9 µM
Cc1cc2cc(CCNC(=O)C(C)C)c(=O)[nH]c2cc1C > 76.9 µM
CC(=O)c1c(N)c(C#N)c(C)n1-c1ccc(Br)cc1 > 76.9 µM
Cc1ccc(-n2c(=O)cc(N3CC(C)CC(C)C3)[nH]c2=O)cc1 (centres undefined) > 76.9 µM
O=C(O)Cn1c(-c2cscn2)nc2ccccc21 > 76.9 µM
CN(C)CCn1c(C(=O)Nc2ccccc2)cc2ccccc21 > 76.9 µM
OC(CNCC(c1ccco1)N1CCCCC1)c1ccccc1 (centres undefined) > 76.9 µM
Cc1[nH]nc2c1C1(CCC(c3ccccc3)CC1)C(C#N)=C(N)O2 (centres undefined) > 76.9 µM
Cc1occc1-c1nnc(SCC(=O)c2ccc(Cl)cc2)n1CC1CCCO1 (centres undefined) > 76.9 µM
O=C(c1cccs1)c1no[n+]([O-])c1C(=O)c1cccs1 > 76.9 µM
COc1ccc(N(CC(O)Cn2nnc3ccccc32)S(=O)(=O)c2ccc(C)cc2)cc1 (centres undefined) > 76.9 µM
O=C(CSc1nc2ccccc2s1)N1CCN(C(=O)c2ccco2)CC1 > 76.9 µM
CC(C)=CC(=O)OCC(=O)Nc1ccc(F)cc1Cl > 76.9 µM
Clc1ccc(NCc2nnc3n2CCCCC3)cc1 > 76.9 µM
COc1ccc(NC(=O)c2ccccc2NS(C)(=O)=O)cc1OC > 76.9 µM
COc1ccc(NC(=O)CCC2COc3ccccc3O2)c(OC)c1 (centres undefined) > 76.9 µM
CCC12CN3CC(CC)(CN(C1)C31C(=O)N(C)c3ccc(C)cc31)C2=O (centres undefined) > 76.9 µM
CCC(C)NC(=O)CSc1nc2ccc(N3CCOCC3)cc2c(=O)n1CCc1ccccc1 (centres undefined) > 76.9 µM
CCC(Oc1ccccc1)C(=O)Nc1nc2ccccc2[nH]1 (centres undefined) > 76.9 µM
COC(=O)c1cccc(NC(=O)CSc2ncn[nH]2)c1 > 76.9 µM
CCn1[nH]c(=O)c(=Nc2c(C)n(C)n(-c3ccccc3)c2=O)cc1-c1ccc(Cl)cc1 > 76.9 µM
CCc1nnc(NC(=O)CCC(=O)NC2CCCCC2)s1 > 76.9 µM
COCCCNc1nc2c(c(=O)[nH]c(=O)n2C)n1CC(O)COc1cccc(C)c1 (centres undefined) > 76.9 µM
COc1ccc(CCN2CC(C(=O)O)CC2=O)cc1 (centres undefined) > 76.9 µM
CCOc1cccc2cc(-c3nnc(-c4ccccc4)o3)c(=O)oc12 > 76.9 µM
COc1ccc(Br)cc1CNC(=O)C1CCCN(c2nc3ccccc3o2)C1 (centres undefined) > 76.9 µM
CCC(C)NC(=O)c1ccccc1C(=O)NC(C)CC (centres undefined) > 76.9 µM
O=C(C1=C(O)C(=O)N(Cc2ccco2)C1c1cccnc1)c1cc2ccccc2o1 (centres undefined) > 76.9 µM
O=C(Nc1ccc(S(=O)(=O)N2CCCC2)cc1Cl)C1=COCCO1 > 76.9 µM
C=CCOC(=O)COc1ccc2c(C)c(CC)c(=O)oc2c1 > 76.9 µM
COc1cccc(C2(O)CCN(C(=O)c3cccs3)CC2)c1 > 76.9 µM
O=C(NC1CCCCC1)NC1CC2CCC(C1)N2C(=O)NCc1ccccc1 (centres undefined) > 76.9 µM
C(=N\n1cnnc1)/C1CCCCC1 > 76.9 µM
Cc1ccc(Cn2ccc(NC(=O)c3cc(-c4ccc5c(c4)OCO5)on3)n2)cc1 > 76.9 µM
CN(CC(=O)NCc1ccco1)S(=O)(=O)c1ccc2c(c1)n(C)c(=O)c(=O)n2C > 76.9 µM
CC(C)C(NC(=O)c1ccco1)C(=O)NCC(c1ccco1)N1CCCCC1 (centres undefined) > 76.9 µM
CCOc1ccccc1N(C(=O)c1ccco1)C(C(=O)NC1CCCC1)c1cccnc1 (centres undefined) > 76.9 µM
Cc1ccc(N2CC(C(=O)NC3CCSC3=O)CC2=O)cc1 (centres undefined) > 76.9 µM
Cc1noc(C)c1C(=O)Nc1ccc2c(c1)CCC2 > 76.9 µM
CC(C)OCCCNc1ncnc2c1[nH]c1ccc(F)cc12
Cc1oc(C)c2c(=O)ccc3c(c12)OC(N)=C(C#N)C3c1ccccc1Cl (centres undefined) > 76.9 µM
CN1CCN(c2ccccc2NC(=O)c2ccc(-c3ccccc3)cc2)CC1
O=C1OC2(c3ccccc3)C3CCCC2C13 > 76.9 µM
CCOc1cccc(C(=O)NC2CCCCC2)c1 > 76.9 µM
COc1ccc(-n2c(COc3ccc(C)cc3)nnc2SCC(N)=O)cc1 > 76.9 µM
O=C(NCc1nc2ccccc2[nH]1)c1ccc(S(=O)(=O)N2CCOCC2)cc1 > 76.9 µM
COc1ccc(CCNC(=O)Cc2nn(C)c(=O)c3ccccc23)cc1OC > 76.9 µM
O=S(=O)(C/C(=C/CO)S(=O)(=O)c1ccccc1)c1ccccc1 > 76.9 µM
c1cc2[nH]snc2c2nc(C3CC3)nc12 > 76.9 µM
CC(NS(=O)(=O)c1ccc(Br)cc1)C(N)=O (centres undefined) > 76.9 µM
CCN(CCO)C(=O)CC(c1ccccc1)c1cc(Br)ccc1O (centres undefined) > 76.9 µM
Cc1cc(C)n(-c2nc3ccccc3c(=O)n2OC2CCCCC2)n1 > 76.9 µM
Cc1ccc(-n2cnnn2)c2cccnc12 > 76.9 µM
CC(=O)Nc1ccc2c(c1)nc(CCN1CCOCC1)n2C > 76.9 µM

Reference: PubChem BioAssay AID360 (National Center for Advancing Translational Sciences (NCATS), 2006)
